Measured values from PubChem BioAssay (NCI).
Where “and” joins values, the source holds several entries; their conditions need not be identical. Equal values may be shown once.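 Cells were grown in 96-well plates and exposed to each compound for 48 hours at five concentrations; endpoints were interpolated linearly between bracketing concentrations, or set to the highest concentration if not reached. GI50 is the concentration that inhibits growth by half. TGI denotes the concentration required for complete inhibition of growth.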

System: NCI-H322M lung
Test: growth of human tumour cells (NCI), 48 h

Structure (SMILES): Cc1nc2cccc(F)c2c(=O)n1-c1nnc(C(F)(F)F)s1
- TGI: > 10 µM

Structure (SMILES): COc1ccc(C2SCC(=O)N2NC(=O)C(C)Oc2ccc(Cl)cc2Cl)cc1 (stereo not drawn)
- TGI: > 100 µM

Structure (SMILES): COc1cc2c(c(OC)c1OC)-c1ccc(O)c(=O)cc1[C@@H](NC(C)=O)CC2
- GI50: 4.06 µM
- TGI: > 100 µM

Structure (SMILES): COc1nc(C)cc2c(=O)n(-c3ccccc3)n(CC(O)CN3CCN(c4ccc(Cl)cc4)CC3)c(=O)c12 (stereo not drawn)
- GI50: > 50 µM
- TGI: > 50 µM

Structure (SMILES): COc1cc(C2c3cc4c(cc3[C@@H](OCCN(C)C)C3COC(=O)[C@H]23)OCO4)cc(OC)c1O (stereo partly drawn)
- TGI: 7.92 µM

Structure (SMILES): Cc1ccc(NC2=N/C(=C/c3ccco3)C(Cl)=N2)cc1
- TGI: > 100 µM

Structure (SMILES): C/C=C(/C)c1cnc(CC(C)C)c(=O)[nH]1
- TGI: > 100 µM

Structure (SMILES): C/C(=N/NC(=S)N1CCN(C(=S)N/N=C(/C)c2ccccn2)CC1)c1ccccn1
- TGI: > 100 µM

Structure (SMILES): C[C@]12CC[C@@H](OC(=O)N(CCCl)N=O)C[C@@H]1CC[C@@H]1[C@@H]2CC[C@]2(C)C(=O)CC[C@@H]12
- GI50: 6.38 µM
- TGI: 22.2 µM

Structure (SMILES): COc1cc(S(=O)(=O)Nc2ccc(-c3csc(/N=C\c4ccccc4)n3)cc2)ccc1Cl
- TGI: > 100 µM

Structure (SMILES): COc1cc(/C=C2\CN(C(=O)CCN3CCC(=NO)CC3)C/C(=C\c3cc(OC)c(OC)c(OC)c3)C2=O)cc(OC)c1OC
- GI50: 0.745 µM
- TGI: 2.03 µM

Structure (SMILES): NC(=O)c1csc(C2CCC(CO)O2)n1 (stereo not drawn)
- TGI: > 100 µM

Structure (SMILES): COC(=O)C(=O)C(C(=O)C(N)=O)c1nc2ccc(C(=O)c3ccccc3)cc2[nH]c1=O (stereo not drawn)
- TGI: > 100 µM

Structure (SMILES): Cn1c(=O)n(CC2CS2)c2ccccc21 (stereo not drawn)
- TGI: > 100 µM

Structure (SMILES): CC(/C=C/NNC1=NC(c2ccccc2)C(c2ccccc2)=NN1)Sc1ccccc1N (stereo not drawn)
- TGI: 23.1 µM

Structure (SMILES): COC(=O)[C@H]1N[C@@H](C(=O)OC)C23CCC[C@H]2CC[C@]1(C(OC)OC)C3
- TGI: > 100 µM

Structure (SMILES): Cc1nc(Nc2nc3ccccc3[nH]2)nc(Cl)c1CCCl
- TGI: > 100 µM

Structure (SMILES): COc1cc2c3c(ncc2c(OC)c1OC)-c1cc2c(cc1C3)OCO2
- GI50: 17.7 µM
- TGI: 55.9 µM

Structure (SMILES): COc1cc2oc(=O)cc(C)c2cc1OC
- TGI: > 100 µM

Structure (SMILES): O=C(O)c1cccc(/C=C/c2ccccc2)c1
- TGI: > 100 µM

Structure (SMILES): CC1(C)[C@@H](OC(N)=O)C=C[C@]2(CO)[C@H]3CC[C@]4(C)[C@@H](c5ccc(=O)oc5)[C@@H](Cl)C[C@]4(O)C3=CC[C@@H]12
- GI50: 0.00226 µM
- TGI: 0.0133 µM

Structure (SMILES): Cc1cn(CCOCCOC(=O)NC(CCCNC(N)=O)C(=O)O)c(=O)[nH]c1=O (stereo not drawn)
- TGI: > 100 µM

Structure (SMILES): COc1ccc(NC(=O)CC(=O)N2N=C(N(c3ccccc3)c3ccccc3)CC2c2ccccc2)cc1 (stereo not drawn)
- TGI: > 100 µM

Structure (SMILES): Clc1ccc2c(c1)C(N1CCNCC1)=Nc1ccccc1O2
- GI50: 5.16 µM
- TGI: 18 µM

Structure (SMILES): C=CCc1ccccc1C1CC2(C(=O)OC)OC1C(C(=O)OC)=C2C(=O)OC (stereo not drawn)
- TGI: > 10 µM

Structure (SMILES): Cc1nn(CNc2ccccc2C(F)(F)F)c(=S)n1/N=C/c1ccc(F)cc1
- GI50: > 100 µM
- TGI: > 100 µM

Structure (SMILES): ClCc1ccc(C2OCCO2)cc1
- TGI: 44.7 µM

Structure (SMILES): CC(C)(C)C(=O)N1CCN(C=O)C1=S
- TGI: > 100 µM

Structure (SMILES): COC(=O)[C@@H]1C=C[C@H](NC(C)=O)C1
- TGI: > 100 µM

Structure (SMILES): COc1ccc2c(c1)C(=O)C1CCC(=O)N1C2c1ccc2c(c1)OCO2 (stereo not drawn)
- TGI: 42.3 µM

Structure (SMILES): CC(=O)Nc1ccc(/C=C2/NC(=S)N(/C=C3\C(=O)Oc4ccccc4C3=O)C2=O)cc1
- TGI: > 100 µM

Structure (SMILES): COc1cccc(NC(=O)CC(=O)N2N=C(C)C(N=Nc3ccc(C(=O)O)cc3)C2=O)c1 (stereo not drawn)
- TGI: > 100 µM

Structure (SMILES): COc1ccccc1NC(=O)C1=C(C)NC(C)=C(C(=O)Nc2ccccc2OC)C1c1ccc(N(C)C)cc1
- TGI: > 100 µM

Structure (SMILES): O=C(CSc1nc(-c2ccccc2)c(-c2ccccc2)[nH]1)NNC(=S)Nc1ccccc1
- TGI: > 100 µM

Structure (SMILES): CCOC(=O)c1c2c(n(Cc3ccccc3)c1C)-c1nc(Cc3ccccc3)[nH]c1C(=O)C2=O
- GI50: 3.33 µM
- TGI: 10.4 µM

Structure (SMILES): N#Cc1c(N2CCN(c3ccc([N+](=O)[O-])cc3)CC2)[n+](=O)c2ccc(-c3ccc([N+](=O)[O-])cc3)cc2n1[O-]
- TGI: > 100 µM

Structure (SMILES): C=C(C)[C@@H]1CC[C@]2(CO)CC[C@]3(C)[C@H](CC[C@@H]4[C@@](C)(CCCN)[C@H](C(=C)C)CC[C@]43C)[C@@H]12
- GI50: 1.66 µM
- TGI: 3.02 µM

Structure (SMILES): CCCCCCCCCCCCCC(=O)NCC(OCC)OCC
- TGI: > 100 µM

Structure (SMILES): CCN(CCCl)c1cccc(NC(=O)c2ccc(C(=O)Nc3cccc(CN(C)C)c3)cc2)c1
- TGI: 4.1 µM

Structure (SMILES): COC(=O)c1cc(C)ccc1/C=C1\Cc2c(C)cc(C)cc2C1=O
- TGI: > 100 µM

Structure (SMILES): NC1c2c(Cl)sc(Cl)c2C(=O)C1O (stereo not drawn)
- TGI: > 100 µM

Structure (SMILES): Oc1c(Cl)cc(Cl)cc1Sc1cc(Cl)cc(Cl)c1O
- GI50: 3.36 µM and 2.73 µM
- TGI: 17 µM and 10.3 µM

Structure (SMILES): C=CCOC1(CC=C)C(=O)OC2C(O)COC21O (stereo not drawn)
- TGI: > 100 µM

Structure (SMILES): C[C@]12CC[C@H]3[C@@H](CC[C@]4(O)C[C@@H](O)CC[C@]34CO)[C@@]1(O)CC[C@@H]2C1=CC(=O)OC1
- TGI: 15.4 µM

Structure (SMILES): O=C(O)CCSC1=NCCN1
- TGI: > 100 µM

Structure (SMILES): CC(=O)c1cc(-c2ccccc2N)n(-c2ccc3c(c2)OCO3)c1C
- GI50: 0.551 µM
- TGI: > 100 µM

Structure (SMILES): CC1=C(/C=C/C(C)=C/C=C/C(C)=C/C=C/C=C(C)/C=C/C=C(C)/C=C/C2=C(C)C(=O)C(O)CC2(C)C)C(C)(C)CC(O)C1=O (stereo not drawn)
- TGI: > 100 µM

Structure (SMILES): Cc1cnc(Nc2ccc(OCCN3CCCC3)cc2)nc1Nc1cccc(S(=O)(=O)NC(C)(C)C)c1
- GI50: 0.881 µM and 0.893 µM
- TGI: 14.2 µM and > 10 µM

Structure (SMILES): CCN1CCCn2c(=O)[nH]c3cc(Br)cc1c32
- TGI: > 100 µM

Structure (SMILES): O=C(NCCCCCCO)c1cccc2cc3ccccc3nc12
- TGI: 37.1 µM

Structure (SMILES): COc1ccc(/C=C\c2cc(OC)c(OC)c(OC)c2)c(NS(=O)(=O)c2ccc(Cl)cc2)c1O
- GI50: 0.485 µM
- TGI: > 100 µM

Structure (SMILES): CC1(C)C=[N+]([O-])C(C)(C)N1O
- TGI: > 10 µM

Structure (SMILES): O=c1c2cc(Br)ccc2ncn1COCc1ccccc1
- TGI: > 100 µM

Structure (SMILES): COc1cc(/C=C/c2ccc(OC)c(OC)c2OC)cc(OC)c1OC
- TGI: 68 µM

Structure (SMILES): NC(=S)NNC(=S)NC(=O)c1ccco1
- TGI: > 10 µM

Structure (SMILES): Cc1ccc2sc3ccc(N)cc3c(=O)c2c1
- TGI: > 100 µM

Structure (SMILES): CC(C)(CN1CCCCC1)C(/C=C/c1ccccc1)=N\NC(=O)N/N=C(/C=C/c1ccccc1)C(C)(C)CN1CCCCC1
- TGI: 7.5 µM

Structure (SMILES): CCCCNC(=O)Oc1ccc(/C(=C(/CC)Cc2ccccc2)c2ccc(OCCN3CCCCCC3)cc2)cc1
- GI50: 43.9 µM
- TGI: > 100 µM

Structure (SMILES): O=C1c2ccccc2C(=O)c2nn(N=P(CP(=Nn3nc4c(n3)C(=O)c3ccccc3C4=O)(c3ccccc3)c3ccccc3)(c3ccccc3)c3ccccc3)nc21
- TGI: > 100 µM

Structure (SMILES): COC(=O)c1ccc2c(c1)C(=O)c1c-2n(CCCN)c(=O)c2cc(OC)c(OC)cc12
- GI50: 15.2 µM
- TGI: 37.3 µM

Structure (SMILES): CCCCCCNC(=O)Oc1ccc(/C(=C(/C)Cc2ccc(OC)cc2)c2ccc(OCCN(C)C)cc2)cc1
- GI50: 4.85 µM
- TGI: 9.3 µM

Structure (SMILES): CS(=O)(=O)[O-].CS(=O)(=O)[O-].NC1CCCCC1N.[Pt+4] (stereo not drawn)
- GI50: > 100 µM
- TGI: > 100 µM

Structure (SMILES): CC(=O)NC(=O)NC1=NCCC(=O)N1CCc1c[nH]c2ccccc12
- TGI: > 100 µM

Structure (SMILES): CC1=NOC(=O)C1N=Nc1ccc(Br)c(C)c1 (stereo not drawn)
- TGI: 93.2 µM

Structure (SMILES): Cc1ccc(/C=N\NC(=O)c2ccncc2)s1
- TGI: > 100 µM

Structure (SMILES): C[C@]12CCC(=O)C=C1CC[C@@H]1[C@@H]2[C@@H](O)C[C@@]2(C)[C@H]1CC[C@]2(O)C(=O)COC(=O)CCC1CCCC1
- TGI: > 100 µM

Structure (SMILES): COC(=O)C(CC(=O)c1c[nH]c2ccccc12)c1c[nH]c2ccccc12 (stereo not drawn)
- TGI: 49.2 µM

Structure (SMILES): O=C1/C(=C/c2ccc(O)cc2)CCC1CNc1ccccc1 (stereo not drawn)
- TGI: 26.2 µM

Structure (SMILES): COc1ccc(NC(=O)n2nc(/C=C\c3ccc(O)c(OC)c3)cc2/C=C\c2ccc(O)c(OC)c2)cc1
- GI50: 3.87 µM
- TGI: 72.5 µM
